Results as given in patent US20250250312A1, “BIFUNCTIONAL PEPTIDE WITH MUCOADHESIVE AND VIRUS BINDING PROPERTIES” (priority 2022, published 2025).
Not every detail of the peptide structures is certain; ends, links or a residue may be inferred. For at least one compound, name, drawing or mass did not settle the structure. Where a SMILES comes first, the peptide text is derived from it.

Target: receptor binding domain (RBD) of SARS-CoV-2 (2019-nCoV) (Severe acute respiratory syndrome coronavirus 2, UniProt P0DTC2)
Conditions: Table 4; 2019-nCov; cysteines in reduced state; MST

Structure (SMILES) | Kd [nM]
CC(C)C[C@H](NC(=O)[C@H](CC(=O)O)NC(=O)[C@H](CCC(=O)O)NC(=O)[C@H](C)NC(=O)[C@H](CCC(=O)O)NC(=O)[C@H](Cc1c[nH]cn1)NC(=O)[C@H](CC(N)=O)NC(=O)[C@H](Cc1ccccc1)NC(=O)[C@H](CCCCN)NC(=O)[C@H](CC(=O)O)NC(=O)[C@H](CC(C)C)NC(=O)[C@H](Cc1ccccc1)NC(=O)[C@@H](NC(=O)[C@H](CCCCN)NC(=O)[C@H](C)NC(=O)[C@H](CCC(N)=O)NC(=O)[C@H](CS)NC(=O)[C@@H](N)CCC(=O)O)[C@@H](C)O)C(=O)N[C@@H](Cc1ccccc1)C(=O)N[C@@H](Cc1ccc(O)cc1)C(=O)N[C@@H](CCC(N)=O)C(=O)N[C@@H](CO)C(=O)N[C@@H](CO)C(N)=O [p4C2] | 34
CC(C)C[C@H](NC(=O)[C@H](CC(=O)O)NC(=O)[C@H](CCC(=O)O)NC(=O)[C@H](C)NC(=O)[C@H](CCC(=O)O)NC(=O)[C@H](Cc1c[nH]cn1)NC(=O)[C@H](CC(N)=O)NC(=O)[C@H](Cc1ccccc1)NC(=O)[C@H](CCCCN)NC(=O)[C@H](CC(=O)O)NC(=O)[C@H](CC(C)C)NC(=O)[C@H](Cc1ccccc1)NC(=O)[C@@H](NC(=O)[C@H](CCCCN)NC(=O)[C@H](C)NC(=O)[C@H](CS)NC(=O)[C@H](CCC(=O)O)NC(=O)[C@@H](N)CCC(=O)O)[C@@H](C)O)C(=O)N[C@@H](Cc1ccccc1)C(=O)N[C@@H](Cc1ccc(O)cc1)C(=O)N[C@@H](CCC(N)=O)C(=O)N[C@@H](CO)C(=O)N[C@@H](CO)C(N)=O [p4C3] | 42
C[C@H](NC(=O)[C@H](CCC(=O)O)NC(=O)[C@H](Cc1c[nH]cn1)NC(=O)[C@H](CC(N)=O)NC(=O)[C@H](Cc1ccccc1)NC(=O)[C@H](CCCCN)NC(=O)[C@H](CC(=O)O)NC(=O)[C@H](CS)NC(=O)[C@H](Cc1ccccc1)NC(=O)[C@@H](NC(=O)[C@H](CCCCN)NC(=O)[C@H](CS)NC(=O)[C@H](CCC(N)=O)NC(=O)[C@H](CCC(=O)O)NC(=O)[C@@H](N)CCC(=O)O)[C@@H](C)O)C(=O)N[C@@H](CCC(=O)O)C(=O)N[C@@H](CC(=O)O)C(=O)N[C@@H](CS)C(=O)N[C@@H](Cc1ccccc1)C(=O)N[C@@H](Cc1ccc(O)cc1)C(=O)N[C@@H](CCC(N)=O)C(=O)N[C@@H](CS)C(=O)N[C@@H](CO)C(=O)O [p4C4, 8, 18, 22] (H-EEQCKTFCDKFNHEAEDCFYQCS-OH; N-terminus and C-terminus assumed) | 400
CC(C)C[C@H](NC(=O)[C@H](CC(=O)O)NC(=O)[C@H](CCC(=O)O)NC(=O)[C@H](C)NC(=O)[C@H](CCC(=O)O)NC(=O)[C@H](Cc1c[nH]cn1)NC(=O)[C@H](CC(N)=O)NC(=O)[C@H](Cc1ccccc1)NC(=O)[C@H](CCCCN)NC(=O)[C@H](CC(=O)O)NC(=O)[C@H](CS)NC(=O)[C@H](Cc1ccccc1)NC(=O)[C@@H](NC(=O)[C@H](CCCCN)NC(=O)[C@H](CS)NC(=O)[C@H](CCC(N)=O)NC(=O)[C@H](CCC(=O)O)NC(=O)[C@@H](N)CCC(=O)O)[C@@H](C)O)C(=O)N[C@@H](Cc1ccccc1)C(=O)N[C@@H](Cc1ccc(O)cc1)C(=O)N[C@@H](CCC(N)=O)C(=O)N[C@@H](CO)C(=O)N[C@@H](CO)C(N)=O [p4C4, 8] | 59
CC(C)C[C@H](NC(=O)[C@H](CC(=O)O)NC(=O)[C@H](CCC(=O)O)NC(=O)[C@H](C)NC(=O)[C@H](CCC(=O)O)NC(=O)[C@H](Cc1c[nH]cn1)NC(=O)[C@H](CC(N)=O)NC(=O)[C@H](Cc1ccccc1)NC(=O)[C@H](CCCCN)NC(=O)[C@H](CC(=O)O)NC(=O)[C@H](CC(C)C)NC(=O)[C@H](Cc1ccccc1)NC(=O)[C@@H](NC(=O)[C@H](CCCCN)NC(=O)[C@H](CS)NC(=O)[C@H](CCC(N)=O)NC(=O)[C@H](CCC(=O)O)NC(=O)[C@@H](N)CCC(=O)O)[C@@H](C)O)C(=O)N[C@@H](Cc1ccccc1)C(=O)N[C@@H](Cc1ccc(O)cc1)C(=O)N[C@@H](CCC(N)=O)C(=O)N[C@@H](CO)C(=O)N[C@@H](CO)C(=O)O [p4C4] | 1300
CC(C)C[C@H](NC(=O)[C@H](CC(=O)O)NC(=O)[C@H](CCC(=O)O)NC(=O)[C@H](C)NC(=O)[C@H](CCC(=O)O)NC(=O)[C@H](Cc1c[nH]cn1)NC(=O)[C@H](CC(N)=O)NC(=O)[C@H](Cc1ccccc1)NC(=O)[C@H](CCCCN)NC(=O)[C@H](CC(=O)O)NC(=O)[C@H](CC(C)C)NC(=O)[C@H](Cc1ccccc1)NC(=O)[C@@H](NC(=O)[C@H](CS)NC(=O)[C@H](C)NC(=O)[C@H](CCC(N)=O)NC(=O)[C@H](CCC(=O)O)NC(=O)[C@@H](N)CCC(=O)O)[C@@H](C)O)C(=O)N[C@@H](Cc1ccccc1)C(=O)N[C@@H](Cc1ccc(O)cc1)C(=O)N[C@@H](CCC(N)=O)C(=O)N[C@@H](CO)C(=O)N[C@@H](CO)C(=O)O [p4C5] | 2140
CC(C)C[C@H](NC(=O)[C@H](CC(=O)O)NC(=O)[C@H](CCC(=O)O)NC(=O)[C@H](C)NC(=O)[C@H](CCC(=O)O)NC(=O)[C@H](Cc1c[nH]cn1)NC(=O)[C@H](CC(N)=O)NC(=O)[C@H](Cc1ccccc1)NC(=O)[C@H](CCCCN)NC(=O)[C@H](CC(=O)O)NC(=O)[C@H](CC(C)C)NC(=O)[C@H](CS)NC(=O)[C@@H](NC(=O)[C@H](CCCCN)NC(=O)[C@H](C)NC(=O)[C@H](CCC(N)=O)NC(=O)[C@H](CCC(=O)O)NC(=O)[C@@H](N)CCC(=O)O)[C@@H](C)O)C(=O)N[C@@H](Cc1ccccc1)C(=O)N[C@@H](Cc1ccc(O)cc1)C(=O)N[C@@H](CCC(N)=O)C(=O)N[C@@H](CO)C(=O)N[C@@H](CO)C(N)=O [p4C7] | 1940
CC(C)C[C@H](NC(=O)[C@H](CC(=O)O)NC(=O)[C@H](CCC(=O)O)NC(=O)[C@H](C)NC(=O)[C@H](CCC(=O)O)NC(=O)[C@H](Cc1c[nH]cn1)NC(=O)[C@H](CS)NC(=O)[C@H](Cc1ccccc1)NC(=O)[C@H](CCCCN)NC(=O)[C@H](CC(=O)O)NC(=O)[C@H](CS)NC(=O)[C@H](Cc1ccccc1)NC(=O)[C@@H](NC(=O)[C@H](CCCCN)NC(=O)[C@H](C)NC(=O)[C@H](CCC(N)=O)NC(=O)[C@H](CCC(=O)O)NC(=O)[C@@H](N)CCC(=O)O)[C@@H](C)O)C(=O)N[C@@H](Cc1ccccc1)C(=O)N[C@@H](Cc1ccc(O)cc1)C(=O)N[C@@H](CCC(N)=O)C(=O)N[C@@H](CO)C(=O)N[C@@H](CO)C(=O)O [p4C8, 12] | 47
CC(C)C[C@H](NC(=O)[C@H](CC(=O)O)NC(=O)[C@H](CCC(=O)O)NC(=O)[C@H](C)NC(=O)[C@H](CCC(=O)O)NC(=O)[C@H](Cc1c[nH]cn1)NC(=O)[C@H](CC(N)=O)NC(=O)[C@H](Cc1ccccc1)NC(=O)[C@H](CCCCN)NC(=O)[C@H](CC(=O)O)NC(=O)[C@H](CS)NC(=O)[C@H](Cc1ccccc1)NC(=O)[C@@H](NC(=O)[C@H](CCCCN)NC(=O)[C@H](C)NC(=O)[C@H](CCC(N)=O)NC(=O)[C@H](CCC(=O)O)NC(=O)[C@@H](N)CCC(=O)O)[C@@H](C)O)C(=O)N[C@@H](Cc1ccccc1)C(=O)N[C@@H](Cc1ccc(O)cc1)C(=O)N[C@@H](CCC(N)=O)C(=O)N[C@@H](CO)C(=O)N[C@@H](CO)C(=O)O [p4C8] | 281
CC(C)C[C@H](NC(=O)[C@H](CC(=O)O)NC(=O)[C@H](CCC(=O)O)NC(=O)[C@H](C)NC(=O)[C@H](CCC(=O)O)NC(=O)[C@H](Cc1c[nH]cn1)NC(=O)[C@H](CC(N)=O)NC(=O)[C@H](Cc1ccccc1)NC(=O)[C@H](CCCCN)NC(=O)[C@H](CS)NC(=O)[C@H](CC(C)C)NC(=O)[C@H](Cc1ccccc1)NC(=O)[C@@H](NC(=O)[C@H](CCCCN)NC(=O)[C@H](C)NC(=O)[C@H](CCC(N)=O)NC(=O)[C@H](CCC(=O)O)NC(=O)[C@@H](N)CCC(=O)O)[C@@H](C)O)C(=O)N[C@@H](Cc1ccccc1)C(=O)N[C@@H](Cc1ccc(O)cc1)C(=O)N[C@@H](CCC(N)=O)C(=O)N[C@@H](CO)C(=O)N[C@@H](CO)C(N)=O [p4C9] | 3230
CC(C)C[C@H](NC(=O)[C@H](CC(=O)O)NC(=O)[C@H](CCC(=O)O)NC(=O)[C@H](C)NC(=O)[C@H](CCC(=O)O)NC(=O)[C@H](Cc1c[nH]cn1)NC(=O)[C@H](CC(N)=O)NC(=O)[C@H](Cc1ccccc1)NC(=O)[C@H](CS)NC(=O)[C@H](CC(=O)O)NC(=O)[C@H](CC(C)C)NC(=O)[C@H](Cc1ccccc1)NC(=O)[C@@H](NC(=O)[C@H](CCCCN)NC(=O)[C@H](C)NC(=O)[C@H](CCC(N)=O)NC(=O)[C@H](CCC(=O)O)NC(=O)[C@@H](N)CCC(=O)O)[C@@H](C)O)C(=O)N[C@@H](Cc1ccccc1)C(=O)N[C@@H](Cc1ccc(O)cc1)C(=O)N[C@@H](CCC(N)=O)C(=O)N[C@@H](CO)C(=O)N[C@@H](CO)C(=O)O [p4C10] | 331
CC(C)C[C@H](NC(=O)[C@H](CC(=O)O)NC(=O)[C@H](CCC(=O)O)NC(=O)[C@H](CS)NC(=O)[C@H](CCC(=O)O)NC(=O)[C@H](Cc1c[nH]cn1)NC(=O)[C@H](CC(N)=O)NC(=O)[C@H](CS)NC(=O)[C@H](CCCCN)NC(=O)[C@H](CC(=O)O)NC(=O)[C@H](CC(C)C)NC(=O)[C@H](Cc1ccccc1)NC(=O)[C@@H](NC(=O)[C@H](CCCCN)NC(=O)[C@H](C)NC(=O)[C@H](CCC(N)=O)NC(=O)[C@H](CCC(=O)O)NC(=O)[C@@H](N)CCC(=O)O)[C@@H](C)O)C(=O)N[C@@H](Cc1ccccc1)C(=O)N[C@@H](Cc1ccc(O)cc1)C(=O)N[C@@H](CCC(N)=O)C(=O)N[C@@H](CO)C(=O)N[C@@H](CO)C(N)=O [p4C11, 15] | 68
CC(C)C[C@H](NC(=O)[C@H](CC(=O)O)NC(=O)[C@H](CCC(=O)O)NC(=O)[C@H](C)NC(=O)[C@H](CCC(=O)O)NC(=O)[C@H](Cc1c[nH]cn1)NC(=O)[C@H](CC(N)=O)NC(=O)[C@H](CS)NC(=O)[C@H](CCCCN)NC(=O)[C@H](CC(=O)O)NC(=O)[C@H](CC(C)C)NC(=O)[C@H](Cc1ccccc1)NC(=O)[C@@H](NC(=O)[C@H](CCCCN)NC(=O)[C@H](C)NC(=O)[C@H](CCC(N)=O)NC(=O)[C@H](CCC(=O)O)NC(=O)[C@@H](N)CCC(=O)O)[C@@H](C)O)C(=O)N[C@@H](Cc1ccccc1)C(=O)N[C@@H](Cc1ccc(O)cc1)C(=O)N[C@@H](CCC(N)=O)C(=O)N[C@@H](CO)C(=O)N[C@@H](CO)C(=O)O [p4C11] | 12
